Biological target: hepatitis C virus RNA dependent polymerase (NS5B) (Hepacivirus hominis (Hepatitis C virus), UniProt P26663)
Assay: Inhibition of NS5B RNA dependent RNA polymerase activity (SPA, UMP-[5,6 3H] incorporation)
Conditions: IC50 μM, Table 2

Compared with `O=C(N[C@@H](Cc1c[nH]c2ccc(O)cc12)C(=O)O)c1ccc2c(c1)nc(-c1ccccc1OCCO)n2C1CCCCC1` [Entry 2093], `O=C(N[C@@H](Cc1c[nH]c2ccc(O)cc12)C(=O)O)c1ccc2c(c1)nc(-c1ccc3ccccc3n1)n2C1CCCCC1` [Entry 2116] is higher in IC50: 1 to 5 µM for the first, 5 to 10 µM for the second.

Compared with `COc1ccc(CNC(=O)c2ccc3c(c2)nc(-c2ccccn2)n3C2CCCCC2)c(OC)c1` [Entry 2007], `CCOc1cc(C(C)NC(=O)c2ccc3c(c2)nc(-c2ccccn2)n3C2CCCCC2)ccc1OC` (centres unmarked) [Entry 2043] is lower in IC50: 10 to 25 µM for the first, 5 to 10 µM for the second.

`CC(Cc1ccc(O)cc1)(NC(=O)c1ccc2c(c1)nc(-c1ccccn1)n2C1CCCCC1)C(=O)O` (centres unmarked) [Entry 2023] and `O=C(O)CNC(=O)c1ccc2c(c1)nc(-c1ccccn1)n2C1CCCCC1` [Entry 2016] fall in the same range of IC50: 10 to 25 µM for the first, 10 to 25 µM for the second.

`COc1ccc(C(NC(=O)c2ccc3c(c2)nc(-c2ccc(OC(C)C)cc2)n3C2CCCCC2)C(=O)O)cc1OC` (centres unmarked) [Entry 2069] and `COc1ccc(C(NC(=O)c2ccc3c(c2)nc(-c2ccccc2)n3C2CCCCC2)C(=O)O)cc1OC` (centres unmarked) [Entry 2064] fall in the same range of IC50: 1 to 5 µM for the first, 1 to 5 µM for the second.

`COc1ccc(C(NC(=O)c2ccc3c(c2)nc(C2CC2)n3C2CCCCC2)C(=O)O)cc1OC` (centres unmarked) [Entry 2034] and `COc1ccc(C(NC(=O)c2ccc3c(c2)nc(-c2cccc(O)c2)n3C2CCCCC2)C(=O)O)cc1OC` (centres unmarked) [Entry 2028] fall in the same range of IC50: 10 to 25 µM for the first, 10 to 25 µM for the second.

Compared with `O=C(N[C@@H](C(=O)O)c1ccccc1)c1ccc2c(c1)nc(-c1ccccn1)n2C1CCCCC1` [Entry 2014], `CN(C)CCCNC(=O)COc1ccc(-c2nc3cc(C(=O)NCc4ccc(S(N)(=O)=O)cc4)ccc3n2C2CCCCC2)cc1` [Entry 2070] is lower in IC50: 10 to 25 µM for the first, 5 to 10 µM for the second.

Same assay, conditions: IC50 μM, Table 5

With `Cc1cc2c(cc1C(=O)N[C@@H](Cc1c[nH]c3ccc(OCC(=O)O)cc13)C(=O)O)nc(-c1ccoc1)n2C1CCCCC1` [Entry 5009, (S)-3-(5-Carboxymethoxy-1H-indol-3-yl)-2-{[1-(1-cyclohexyl-2-furan-3-yl-6-methyl-1H-benzimidazol-5-yl)-methanoyl]-amino}-propionic Acid] the IC50 was 1 to 5 µM.

Same assay, conditions: IC50 μM, Table 6

Compound `O=C(O)/C=C/c1ccc(O[C@H]2CCN(C(=O)c3ccc4c(c3)nc(-c3ccoc3)n4C3CCCCC3)C2)cc1` [Entry 6004] has an IC50 of 5 to 10 µM.

Same assay, conditions: IC50 μM, Table 7

First: CC(C)Oc1ccc(-c2nc3cc(C(=O)O)ccc3n2C2CCCCC2)cc1 [Entry 7016]
Second: O=C(COc1ccc(-c2nc3cc(C(=O)O)ccc3n2C2CCCCC2)cc1)NCc1ccccc1 [Entry 7008]
The IC50 of the first is lower: 5 to 10 µM for the first, 10 to 25 µM for the second. The first is the more potent here.

Same assay, conditions: IC50 μM, first compound table (printed title TABLE 10; Table 1)

`O=C(NC1CCCNC1)c1ccc2c(c1)nc(-c1ccoc1)n2C1CCCCC1` (centres unmarked) [Entry 1184] and `NC1CCCC(NC(=O)c2ccc3c(c2)nc(-c2ccoc2)n3C2CCCCC2)C1` (centres unmarked) [Entry 1182] fall in the same range of IC50: 5 to 10 µM for the first, 5 to 10 µM for the second.

Compared with `CC(CC(=O)Nc1cc(C(=O)O)ccc1O)NC(=O)c1ccc2c(c1)nc(-c1ccoc1)n2C1CCCCC1` (centres unmarked) [Entry 1167], `CC(CC(=O)Nc1ccc(CC(=O)O)cc1)NC(=O)c1ccc2c(c1)nc(-c1ccoc1)n2C1CCCCC1` (centres unmarked) [Entry 1163] is higher in IC50: 1 to 5 µM for the first, 5 to 10 µM for the second. The first is the more potent here.

`O=C(O)c1cccc(CN2CCC(CNC(=O)c3ccc4c(c3)nc(-c3ccoc3)n4C3CCCCC3)CC2)c1` [Entry 1288] and `O=C(O)c1cccc(CN[C@H]2CC[C@H](NC(=O)c3ccc4c(c3)nc(-c3ccoc3)n4C3CCCCC3)CC2)c1` [Entry 1290] fall in the same range of IC50: 1 to 5 µM for the first, 1 to 5 µM for the second.

First: CCOc1ccc(C(NC(=O)c2ccc3c(c2)nc(-c2ccoc2)n3C2CCCCC2)C(=O)O)cc1OCC (centres unmarked) [Entry 1013]
Second: O=C(N[C@@H](Cc1ccc([N+](=O)[O-])cc1)C(=O)O)c1ccc2c(c1)nc(-c1ccoc1)n2C1CCCCC1 [Entry 1017]
The IC50 of the first is lower: 1 to 5 µM for the first, 5 to 10 µM for the second.

`CC(C)(CC(=O)O)C(=O)N[C@H]1CC[C@H](NC(=O)c2ccc3c(c2)nc(-c2ccoc2)n3C2CCCCC2)CC1` [Entry 1227] and `O=C(O)CCC(=O)NC1CCCC(NC(=O)c2ccc3c(c2)nc(-c2ccoc2)n3C2CCCCC2)C1` (centres unmarked) [Entry 1221] fall in the same range of IC50: 10 to 25 µM for the first, 10 to 25 µM for the second.

Compared with `CC(C)[C@H](Cc1ccc(O)cc1)NC(=O)c1ccc2c(c1)nc(-c1ccoc1)n2C1CCCCC1` [Entry 1089], `N#C[C@H](Cc1ccc(O)cc1)NC(=O)c1ccc2c(c1)nc(-c1ccoc1)n2C1CCCCC1` [Entry 1170, 1-Cyclohexyl-2-furan-3-yl-1H-benzimidazole-5-carboxylic Acid [(S)-1-Cyano-2-(4-hydroxy-phenyl)-ethyl]-amide] is higher in IC50: 1 to 5 µM for the first, 10 to 25 µM for the second. The first is the more potent here.

Compared with `O=C(O)CCc1cccc(NC(=O)c2ccc3c(c2)nc(-c2ccoc2)n3C2CCCCC2)c1` [Entry 1237], `O=C(NCc1ccccc1)c1ccc2c(c1)nc(-c1ccoc1)n2C1CCCCC1` [Entry 1005] is lower in IC50: 5 to 10 µM for the first, 1 to 5 µM for the second. The second is the more potent here.

`CC(=O)Nc1nc([C@H](Cc2ccc(O)cc2)NC(=O)c2ccc3c(c2)nc(-c2ccoc2)n3C2CCCCC2)cs1` [Entry 1242, 1-Cyclohexyl-2-furan-3-yl-1H-benzimidazole-5-carboxylic Acid [(S)-1-(2-Acetylamino-thiazol-4-yl)-2-(4-hydroxy-phenyl)-ethyl]-amide] and `CNc1nc([C@H](Cc2ccc(O)cc2)NC(=O)c2ccc3c(c2)nc(-c2ccoc2)n3C2CCCCC2)cs1` [Entry 1240, 1-Cyclohexyl-2-furan-3-yl-1H-benzimidazole-5-carboxylic Acid [(S)-2-(4-Hydroxy-phenyl)-1-(2-methylamino-thiazol-4-yl)-ethyl]-amide] fall in the same range of IC50: 1 to 5 µM for the first, 1 to 5 µM for the second.

`Cc1cc(=O)oc2ccc(C[C@H](NC(=O)c3ccc4c(c3)nc(-c3ccoc3)n4C3CCCCC3)C(=O)O)cc12` [Entry 1126, (S)-2-{[1-(1-Cyclohexyl-2-furan-3-yl-1H-benzimidazol-5-yl)-methanoyl]-amino}-3-(4-methyl-2-oxo-2H-1-benzopyran-6-yl)-propionic Acid] and `O=C(O)COc1c(F)cc(CC(NC(=O)c2ccc3c(c2)nc(-c2ccoc2)n3C2CCCCC2)C(=O)O)cc1F` (racemic) [Entry 1144, 3-(4-Carboxymethoxy-3,5-difluoro-phenyl)-2-{[1-(1-cyclohexyl-2-furan-3-yl-1H-benzimidazol-5-yl)-methanoyl]-amino}-propionic Acid] fall in the same range of IC50: 1 to 5 µM for the first, 1 to 5 µM for the second.

Compared with `CC(CC(=O)Nc1ccc(/C=C/C(=O)O)cc1)NC(=O)c1ccc2c(c1)nc(-c1ccoc1)n2C1CCCCC1` (centres unmarked) [Entry 1162], `CN(C)NC(=O)c1ccc2c(c1)nc(-c1ccoc1)n2C1CCCCC1` [Entry 1300] is higher in IC50: 1 to 5 µM for the first, 5 to 10 µM for the second. The first is the more potent here.

First: O=C(O)COc1ccccc1CN[C@H]1CC[C@H](NC(=O)c2ccc3c(c2)nc(-c2ccoc2)n3C2CCCCC2)CC1 [Entry 1264]
Second: O=C(O)CNC(=O)N1CCCC(NC(=O)c2ccc3c(c2)nc(-c2ccoc2)n3C2CCCCC2)C1 (centres unmarked) [Entry 1194]
The IC50 of the first is lower: 5 to 10 µM for the first, 10 to 25 µM for the second. The first is the more potent here.

Same assay, conditions: IC50, Table 11

`O=C(O)COc1ccc2[nH]cc(CC(NC(=O)c3ccc4c(c3)nc(-c3ccoc3)n4C3CCCCC3)C(=O)O)c2c1` (centres unmarked) [Entry 11014] and `CC(C)(Oc1ccc2[nH]cc(C[C@H](NC(=O)c3ccc4c(c3)nc(-c3ccoc3)n4C3CCCCC3)C(=O)O)c2c1)C(=O)O` [Entry 11010] cannot be ordered by IC50: < 1 µM for the first, < 1 µM for the second.

Same assay, conditions: IC50, Table 13

`O=C(N[C@@H](Cc1c[nH]c2ccc(O)cc12)C(=O)NCCN1CCCC1)c1ccc2c(c1)nc(-c1ccoc1)n2C1CCCCC1` [Entry 13019, 1-Cyclohexyl-2-furan-3-yl-1H-benzimidazole-5-carboxylic Acid [(S)-2-(5-Hydroxy-1H-indol-3-yl)-1-(2-pyrrolidin-1-yl-ethylcarbamoyl)-ethyl]-amide] and `NC(=O)[C@H](Cc1c[nH]c2ccc(NC(=O)C(=O)NCc3ccc(C(=O)O)cc3)cc12)NC(=O)c1ccc2c(c1)nc(-c1ccoc1)n2C1CCCCC1` [Entry 13012, 4-[({1-[3-((S)-2-Carbamoyl-2-{[1-(1-cyclohexyl-2-furan-3-yl-1H-benzimidazol-5-yl)-methanoyl]-amino}-ethyl)-1H-indol-5-ylcarbamoyl]-methanoyl}-amino)-methyl]-benzoic Acid] cannot be ordered by IC50: < 1 µM for the first, < 1 µM for the second.

Same assay, conditions: IC50, Table 14

With `CN(C)c1nc([C@H](Cc2c[nH]c3ccc(O)cc23)NC(=O)c2ccc3c(c2)nc(-c2ccoc2)n3C2CCCCC2)cs1` [Entry 14005, 1-Cyclohexyl-2-furan-3-yl-1H-benzimidazole-5-carboxylic Acid [(S)-1-(2-Dimethylamino-thiazol-4-yl)-2-(5-hydroxy-1H-indol-3-yl)-ethyl]-amide] the IC50 was < 1 µM.

Same assay, conditions: IC50, Table 15

In the case of `O=C(N[C@@H](Cc1c[nH]c2ccc(O)cc12)c1cscn1)c1ccc2c(c1)nc(-c1ccc[nH]1)n2C1CCCCC1` [Entry 15003], the IC50 is reported as < 1 µM.

Same assay, conditions: IC50, Table 16

`COC(=O)[C@H](Cc1ccc(-n2cc(C(=O)O)nn2)cc1)NC(=O)c1ccc2c(c1)nc(-c1ccoc1)n2C1CCCCC1` [Entry 16033] and `Cn1nnc(-c2ccc(C[C@H](NC(=O)c3ccc4c(c3)nc(-c3ccoc3)n4C3CCCCC3)C(=O)O)cc2)n1` [Entry 16036] cannot be ordered by IC50: < 1 µM for the first, < 1 µM for the second.

`O=C(O)CCc1cc(C[C@H](NC(=O)c2ccc3c(c2)nc(-c2ccoc2)n3C2CCCCC2)C(=O)O)ccc1O` [Entry 16065, (S)-3-[3-(2-caboxyethyl)-4-hydroxy-phenyl]-2-{[1-(1-cyclohexyl-2-furan-3-yl-1H-benzoimidazol-5-yl)-methanoyl]-amino}-propionic Acid] and `[N-]=[N+]=Nc1cc(C[C@H](NC(=O)c2ccc3c(c2)nc(-c2ccoc2)n3C2CCCCC2)C(=O)O)ccc1OCC(=O)O` [Entry 16063, (S)-3-(3-Azido-4-carboxymethoxy-phenyl)-2-{[1-(1-cyclohexyl-2-furan-3-yl-1H-benzimidazol-5-yl)-methanoyl]-amino}-propionic Acid] cannot be ordered by IC50: < 1 µM for the first, < 1 µM for the second.

`O=C(N[C@@H](Cc1cccc(-c2nnn[nH]2)c1)C(=O)O)c1ccc2c(c1)nc(-c1ccoc1)n2C1CCCCC1` [Entry 16057, (S)-2-{[1-(1-Cyclohexyl-2-furan-3-yl-1H-benzimidazol-5-yl)-methanoyl]-amino}-3-[3-(2H-tetrazol-5-yl)-phenyl]-propionic Acid] and `Nc1nc([C@H](Cc2ccc(O)cc2)NC(=O)c2ccc3c(c2)nc(-c2ccoc2)n3C2CCCCC2)cs1` [Entry 16060, 1-Cyclohexyl-2-furan-3-yl-1H-benzimidazole-5-carboxylic Acid [(S)-1-(2-Amino-thiazol-4-yl)-2-(4-hydroxy-phenyl)-ethyl]-amide] cannot be ordered by IC50: < 1 µM for the first, < 1 µM for the second.
